One test has as its target T1, murine CD33-His protein (murine, UniProt Q63994 18-240, limits assumed).
T1 construct: also called murine CD33 protein
T1 sequence (looked up): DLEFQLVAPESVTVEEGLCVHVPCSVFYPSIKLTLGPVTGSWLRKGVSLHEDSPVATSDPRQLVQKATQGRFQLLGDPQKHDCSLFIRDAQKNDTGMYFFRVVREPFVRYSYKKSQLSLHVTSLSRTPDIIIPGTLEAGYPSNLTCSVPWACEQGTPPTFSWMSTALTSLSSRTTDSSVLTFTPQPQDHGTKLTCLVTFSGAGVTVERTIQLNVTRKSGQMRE
Kind of test: ELISA, antigen coated.

In a further test the target is T2, human CD33-his protein (human, UniProt P20138 18-259).
T2 construct: range 18-259; bought protein; also called hCD33-his; recombinant human CD33-his; not shown: His tag
Kind of test: SPR (Biacore), antibody captured on Protein A chip, human CD33-his analyte.

Usually Kd stands for the constant that tells how readily two partners part at equilibrium. One may read the koff as a measure of how fast the partners let go of each other. Read a high koff as fast dissociation. As usually defined, the kon is a measure of how fast the partners come together. Low values mean slow association, high ones fast association.

Sequence of human CD33-his protein (P20138 18-259 limits assumed): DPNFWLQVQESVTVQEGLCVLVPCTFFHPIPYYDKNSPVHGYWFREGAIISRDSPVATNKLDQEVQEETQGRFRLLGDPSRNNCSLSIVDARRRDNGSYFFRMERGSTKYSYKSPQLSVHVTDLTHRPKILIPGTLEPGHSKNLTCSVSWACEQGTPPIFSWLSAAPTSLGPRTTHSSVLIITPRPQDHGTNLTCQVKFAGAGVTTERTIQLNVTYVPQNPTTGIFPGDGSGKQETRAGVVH

B1: S006-NB147-225 (Fc fusion)
chain: EVQVVESGGGSVQPGGSLRLSCVASGFTFSNYAMSWVRQTPKKGLEWVAEINSGGDNTYYAYFVKGRFTISRDNAKNTLYLQMNSLKPEDTGTYYCAREEENAGTILQGQGTQVTVSS[letters of human IgG1 Fc with changes left out]
notes: also called VHH-Fc
With B1, in the test with murine CD33-His protein, the “OD450 at 0.0001 nM” value was 0.06 OD450, the “OD450 at 0.001 nM” value came out at 0.06 OD450, the “OD450 at 0.01 nM” value was 0.11 OD450 and the “OD450 at 0.1 nM” value amounted to 0.05 OD450. In the test with murine CD33-His protein, the “OD450 at 1 nM” value was 0.06 OD450, the “OD450 at 10 nM” value is 0.06 OD450 and the “OD450 at 100 nM” value worked out at 0.06 OD450.

B2: S006-NB147-225-H5 (Fc fusion)
chain: EVQVVESGGGLVQPGGSLRLSCAASGFTFSNYAMSWVRQAPGKGLEWVAEINSGGDNTYYAYFVKGRFTISRDNAKNSLYLQMNSLKPEDTATYYCAREEENAGTILQGQGTQVTVSS[letters of human IgG1 Fc with changes left out]
B2: in the test with human CD33-his protein, the Kd was 13.9 nM, the koff turned out to be 0.000498 s⁻¹ and the kon was determined as 35900 M⁻¹ s⁻¹.

B3: S006-NB146-132-aH2 (Fc fusion)
chain: EVQLVESGGGLVQPGGSLRLSCAASGGTFVINAAWYRQAPGKQRELVASISYGGSTNYADRVAGRFTISRDNAKNSLYLQMNSLRAEDTAVYYCRLDPGLALNNRPLYYWGQGTMVTVSS[letters of human IgG1 Fc with changes left out]
For the molecule B3, in the test with human CD33-his protein, the Kd came out at 0.521 nM, the koff was found to be 0.00028 s⁻¹ and the kon was 537000 M⁻¹ s⁻¹.

B4: S006-NB146-132-aH3 (Fc fusion)
chain: QVQLVESGGGLVQPGGSLRLSCAASGGTFVINAAWYRQAPGKQRELVASISYGGSTNYADRVAGRFTISRDNAKNSLYLQMNSLRAEDTAVYYCRLDPGLALNNRPLYYWGQGTMVTVSS[letters of human IgG1 Fc with changes left out]
With B4, in the test with human CD33-his protein, binding was characterised by a dissociation constant (Kd) of 0.617 nM, the koff came out at 0.000294 s⁻¹ and the on-rate constant (kon) came to 477000 M⁻¹ s⁻¹.

B5: S006-NB146-132-aH5 (Fc fusion)
chain: EVQLVESGGGLVQPGGSLRLSCAASGGTFVINAAWYRQAPGKQRELVASISYGGSTNYADRVAGRFTISRDNAKNSVYLQMNSLRAEDTAVYYCRLDPGLALNNRPLYYWGQGTMVTVSS[letters of human IgG1 Fc with changes left out]
In the test with human CD33-his protein, B5 showed a Kd of 0.341 nM, a koff of 0.000234 s⁻¹ and a kon of 688000 M⁻¹ s⁻¹.

B6: S006-NB146-132-aH1 (Fc fusion)
chain: EVQLVESGGGLVQPGGSLRLSCAASGFTFSINAAWYRQAPGKQRELVASISYGGSTNYADRVAGRFTISRDNAKNSLYLQMNSLRAEDTAVYYCRLDPGLALNNRPLYYWGQGTMVTVSS[letters of human IgG1 Fc with changes left out]
Turning to B6, in the test with human CD33-his protein, the Kd stood at 4.5 nM, the koff is 0.00142 s⁻¹ and the kon is 317000 M⁻¹ s⁻¹.

B7: S006-NB146-60-H3 (Fc fusion)
chain: EVQLVESGGGLVQPGGSLRLSCAASRSTSSLSLMSWHRQAPGKQRELVASITSGGKANYVDSVKGRFTISRDNAKNSLYLQMNSLRAEDTAVYYCHAYDRAGTASGFGAAWGQGTMVTVSS[letters of human IgG1 Fc with changes left out]
In the test with human CD33-his protein, B7 came in with a Kd of 27.2 nM, a koff of 0.000507 s⁻¹ and a kon of 18600 M⁻¹ s⁻¹.

B8: S006-NB146-60-H4 (Fc fusion)
chain: EVQLVESGGGLVQPGGSLRLSCAASRSTSSLSLMSWHRQAPGKQRELVASITSGGKANYVDSVKGRFTMSRDNAKNSVYLQMNSLRAEDTAVYYCHAYDRAGTASGFGAAWGQGTMVTVSS[letters of human IgG1 Fc with changes left out]
In the test with human CD33-his protein, B8 came in with a Kd of 3.49 nM, a koff of 0.000151 s⁻¹ and an on-rate (kon) of 43200 M⁻¹ s⁻¹.

B9: S006-NB146-60-H5 (Fc fusion)
chain: EVQLVESGGGLVQPGGSLRLSCAASRSTSSLSLMSWHRQAPGKQRELVASITSGGKANYVDSVKGRFTISRDDAKNSLYLQMNSLRAEDTAVYYCHAYDRAGTASGFGAAWGQGTMVTVSS[letters of human IgG1 Fc with changes left out]
In the test with human CD33-his protein, B9 displayed a dissociation constant (Kd) of 55.3 nM, a koff of 0.000817 s⁻¹ and a kon of 14800 M⁻¹ s⁻¹.

B10: S006-NB146-60-H7 (Fc fusion)
chain: EVQLVESGGGLVQPGGSLRLSCAASRSTSSLSLMSWHRQAPGKQRELVASITSGGKANYVDSVKGRFTISRDNAKNSLYLQMNSLKPEDTAVYYCHAYDRAGTASGFGAAWGQGTMVTVSS[letters of human IgG1 Fc with changes left out]
With B10, in the test with human CD33-his protein, binding was put at a Kd of 22.9 nM, the koff worked out at 0.000425 s⁻¹ and the kon amounted to 18500 M⁻¹ s⁻¹.

B11: S006-NB146-60-H6 (Fc fusion)
chain: EVQLVESGGGLVQPGGSLRLSCAASRSTSSLSLMSWHRQAPGKQRELVASITSGGKANYVDSVKGRFTISRNDAKNSLYLQMNSLRAEDTAVYYCHAYDRAGTASGFGAAWGQGTMVTVSS[letters of human IgG1 Fc with changes left out]
Regarding B11, in the test with human CD33-his protein, the Kd amounted to 69.8 nM, the off-rate constant (koff) turned out to be 0.000815 s⁻¹ and the kon was determined as 11700 M⁻¹ s⁻¹.

B12: S006-NB146-17-H2 (Fc fusion)
chain: EVQLVESGGGLVQPGGSLRLSCAASGSIFTSDDMDYAMGWYRQAPGKQREWVATITSDEDTNYVDSVKGRFTISRDNAKNSLYLQMNSLRAEDTAVYYCFANVRSDRSSLYRNYWGQGTMVTVSS[letters of human IgG1 Fc with changes left out]
For B12, in the test with human CD33-his protein, the Kd is 2.11 nM, the koff is 0.000103 s⁻¹ and the kon was found to be 48700 M⁻¹ s⁻¹.

B13: S006-NB146-17-H3 (Fc fusion)
chain: EVQLVESGGGLVQPGGSLRLSCAASGSIFTSDDMDYAMGWYRQAPGKQREWVATITSDEDTNYVDSVKGRFTISRDNAKNSAYLQMNSLRAEDTAVYYCFANVRSDRSSLYRNYWGQGTMVTVSS[letters of human IgG1 Fc with changes left out]
In the test with human CD33-his protein, B13 displayed a Kd of 1.33 nM, a koff of 9.69e-05 s⁻¹ and a kon of 73000 M⁻¹ s⁻¹.

B14: S006-NB146-17-H9 (Fc fusion)
chain: EVQLVESGGGLVQPGGSLRLSCAASGSIFTSDDMDYAMGWYRQAPGKQREWVATITSDEDTNYVDSVKGRFTISRDNAKNSAYLQMNSLKPEDTAVYYCFANVRSDRSSLYRNYWGQGTMVTVSS[letters of human IgG1 Fc with changes left out]
Regarding B14, in the test with human CD33-his protein, the affinity, expressed as Kd, was 1.21 nM; the koff worked out at 8.86e-05 s⁻¹; the kon is 73200 M⁻¹ s⁻¹.

B15: S006-NB146-17-H8 (Fc fusion)
chain: EVQLVESGGGLVQPGGSLRLSCAASGSIFTSNDMDYAMGWYRQAPGKQREWVATITSDEDTNYVDSVKGRFTISRDSAKNSAYLQMNSLRAEDTAVYYCFANVRSDRSSLYRNYWGQGTMVTVSS[letters of human IgG1 Fc with changes left out]
Consider B15, for which, in the test with human CD33-his protein, binding was put at a Kd of 1.07 nM, the koff amounted to 7.69e-05 s⁻¹ and the kon turned out to be 71700 M⁻¹ s⁻¹.

B16: S006-NB146-17-H7 (Fc fusion)
chain: EVQLVESGGGLVQPGGSLRLSCAASGSIFTSDDMDYAMGWYRQAPGKQREWVATITSDEDTNYVDSVKGRFTISRDSAKNSAYLQMNSLRAEDTAVYYCFANVRSDRSSLYRNYWGQGTMVTVSS[letters of human IgG1 Fc with changes left out]
In the test with human CD33-his protein, B16 registered a Kd of 1.06 nM, a koff of 7.6e-05 s⁻¹ and a kon of 71600 M⁻¹ s⁻¹.

B17: S006-NB146-17-H6 (Fc fusion)
chain: EVQLVESGGGLVQPGGSLRLSCAASGSIFTSDDMDYAMGWYRQAPGKQREWVATITSDEDTNYGDSVKGRFTISRDNAKNSAYLQMNSLRAEDTAVYYCFANVRSDRSSLYRNYWGQGTMVTVSS[letters of human IgG1 Fc with changes left out]
For the molecule B17, in the test with human CD33-his protein, the Kd came to 0.598 nM, the koff was 4.47e-05 s⁻¹ and the kon was determined as 74900 M⁻¹ s⁻¹.

B18: S006-NB146-17-H4 (Fc fusion)
chain: QVQLVESGGGLVQPGGSLRLSCAASGSIFTSDDMDYAMGWYRQAPGKQREWVATITSDEDTNYVDSVKGRFTISRDNAKNSAYLQMNSLRAEDTAVYYCFANVRSDRSSLYRNYWGQGTMVTVSS[letters of human IgG1 Fc with changes left out]
In the case of B18, in the test with human CD33-his protein, the Kd was determined as 0.853 nM, the koff came to 6.68e-05 s⁻¹ and the kon amounted to 78300 M⁻¹ s⁻¹.

B19: S006-NB146-17-H1 (Fc fusion)
chain: EVQLVESGGGLVQPGGSLRLSCAASGSIFTSDDMDYAMGWYRQAPGKQREWVATITSDEDTYYVDSVKGRFTISRDNAKNSLYLQMNSLRAEDTAVYYCFANVRSDRSSLYRNYWGQGTMVTVSS[letters of human IgG1 Fc with changes left out]
In the test with human CD33-his protein, B19 gave a Kd of 161 nM, a dissociation rate constant (koff) of 0.00376 s⁻¹ and a kon of 23400 M⁻¹ s⁻¹.

B20: S006-NB146-17-H5 (Fc fusion)
chain: EVQLVESGGGLVQPGGSLRLSCAASGSIFTSQDMDYAMGWYRQAPGKQREWVATITSDEDTNYVDSVKGRFTISRDNAKNSAYLQMNSLRAEDTAVYYCFANVRSDRSSLYRNYWGQGTMVTVSS[letters of human IgG1 Fc with changes left out]
In the case of B20, in the test with human CD33-his protein, the Kd is 0.92 nM, the koff amounted to 7.11e-05 s⁻¹ and the association rate constant (kon) came out at 77300 M⁻¹ s⁻¹.
